# According to PubChem BioAssay AID1508642 (National Center for Advancing Translational Sciences (NCATS), 2021):
# Among all 43,000 compounds or so, about 200 (0.47%) were called active. Not shown: some 12% with an inconclusive outcome. The call rests on the fitted dose curve; in most records, active means well fitted cell-killing curve with a large enough effect; inconclusive means small, poorly fitted or top-dose-only effect, or effect the other way; inactive means flat fitted curve, though single readings scatter. The list shows a part of the results.
# Assay: Cell viability qHTS assay in S16 Pmp22-F2sN cells; further: nearly all actives have a fitted effect of over 65% in size
# Settings: S16 Pmp22-F2sN Schwann cells viability, CellTiter-Glo, 24 h; series mostly up to 57.5 µM; activity change, negative = cytotoxicity: at the top concentration
# Method in brief: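 Viability was measured by CellTiter-Glo luminescence (15 min, room temperature). This followed 24 h at 37 °C of compound exposure (23 nL pin transfer) in S16 Pmp22-F2sN Schwann cells, 500-1,000 per well.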
# On the % scale 0 is the no-effect control and ±100 the full control effect.
row,Compound,"activity change, negative = cytotoxicity"
1,Cc1ccc(-c2nc(CNC(=O)NC3CCCCC3)c(C)o2)cc1,inactive: -18.6%
2,COc1ccc(CNc2nc(-c3ccco3)nn2C(=O)c2ccccc2C)cc1,inactive: 7.79%
3,CC(=O)c1cccc(NC(=O)Nc2cc3c(cc2N2CCCC2)n(C)c(=O)n3C)c1,inactive: -2.12%
4,CCc1ccc(C(=O)Nc2cccc(-c3nc4cc(C(C)C)ccc4o3)c2)cc1,inactive: 20.3%
5,Cc1ccc(Cl)cc1NC(=O)c1ccc2nc(CCc3ccccc3)oc2c1,inactive: 0.953%
6,Cc1ccc(NC(=O)Cn2c(=O)cc(-c3ccccc3)c3c(C)nn(C)c32)c(Cl)c1,inactive: 7.12%
7,CCOC(=O)c1sc2cccc(F)c2c1S(=O)(=O)Nc1ccccc1F,inactive: 12.7%
8,Cc1ccc(C)c(NC(=O)Cn2c(=O)n(CC(=O)NCCc3ccccc3)c(=O)c3ccccc32)c1,inactive: -11.5%
9,O=C(CSc1nnc(-c2ccc(Cl)cc2)c(-c2ccc(Cl)cc2)n1)NC1CCCC1,inactive: -12.6%
10,COc1ccc(NC(=O)c2nnn(CC(=O)Nc3cc(C)cc(C)c3)c2N)c(OC)c1,inactive: 3.59%
11,CCN(C(=O)c1cc(S(=O)(=O)N2CCCC2)cn1C)c1ccc(OC)cc1,inactive: 2.8%
12,COc1ccc(Cn2c(SCc3ccc(C(=O)NCc4cccs4)cc3)nc3ccncc32)cc1,inactive: -20.6%
13,O=S(=O)(c1ccccc1)c1nc(-c2ccco2)oc1SCc1ccc(F)cc1,inactive: -2.66%
14,CCCCC(=O)Nc1ccc(C(=O)OCc2cc(=O)n3ccsc3n2)cc1,inactive: 6.75%
15,Cc1cccc(N2C(=O)N(Cc3ccc(C(C)(C)C)cc3)c3ccccc3S2(=O)=O)c1,inactive: 15.2%
16,CCOC(=O)c1c(NC(=O)C(C)Sc2cn(CCNC(=O)c3ccc(OC)cc3)c3ccccc23)sc2c1CCC2 (stereo not given),inactive: -0.119%
17,Cc1ccc(CSCCNC(=O)CN(c2cccc(C)c2C)S(=O)(=O)c2ccccc2)cc1,inactive: -5.87%
18,O=C(NCc1ccc(Cl)cc1)c1cnc(N2CCOCC2)c2ccccc12,inactive: -0.354%
19,COc1ccccc1NC(=O)C1=C(C)Nc2nc(SCC(=O)c3ccc(C)cc3)nn2C1c1ccc(F)cc1 (stereo not given),inactive: -5.77%
20,Cc1ccccc1CNC(=O)c1ccc(Cn2c(SCc3ccccc3)nc3cccnc32)cc1,inactive: -26.5%
21,CC1CCCN(S(=O)(=O)c2cc(C(=O)NCCc3ccccc3)n(C)c2)C1 (stereo not given),inactive: 16.5%
22,COc1ccc(CNC(=O)c2ccc3c(c2)CCN3S(=O)(=O)c2ccccc2)cc1,inactive: -0.678%
23,CCOc1ccc2nc(NC(=O)c3nc(SCc4ccc(C)cc4)ncc3Cl)sc2c1,inactive: 9.58%
24,COc1ccc(N2CCN(c3nc4ccccc4n4c(C)nnc34)CC2)cc1,inactive: 6.02%

row,Compound,"activity change, negative = cytotoxicity"
1,CN(C(=O)CSc1nc2ccccc2[nH]1)c1ccc(F)cc1,inactive: -1.71%
2,Cc1ccc(CSc2nncn3c2cc2sccc23)cc1,inactive: 1.5%
3,CC(C)COc1ccc(C(=O)N2CCC(c3nc4ccccc4s3)CC2)cc1,inactive: 10.1%
4,Cc1ccc2occ(CC(=O)Nc3c(C(=O)Nc4ccc(Cl)cc4)oc4ccccc34)c2c1,inactive: 0.806%
5,O=C(CC1N=C2c3ccccc3N=C(SCC(=O)Nc3ccccc3F)N2C1=O)NCc1ccc2c(c1)OCO2 (stereo not given),inactive: 4.74%
6,Cc1cccc(C)c1NC(=O)CN(C)S(=O)(=O)c1ccc2[nH]c3c(c2c1)CCCC3,inactive: -29.1%
7,Cc1cccc(CSc2nc(=O)c3c(n2C)NC(=O)CC3c2cccc(O)c2)c1 (stereo not given),inactive: 1.84%
8,Cc1ccc2c(c1)sc1nc(-c3cc4cc(Cl)ccc4oc3=O)cn12,inactive: 0.803%
9,COc1ccccc1NC(=O)Cn1c(=O)n(-c2cccc(Cl)c2)c(=O)c2sc3ccccc3c21,inactive: 1.46%
10,COc1cc2[nH]c(=O)n(Cc3ccc(C(=O)NCc4ccc(C)cc4)cc3)c(=O)c2cc1OC,inactive: -0.0758%
11,O=C1Cc2cc(S(=O)(=O)N3CCCCC3)cc3c2N1CCC3,inactive: -0.0795%
12,Cc1ccc(N2CC(NC(=O)Cc3ccc(F)cc3)CC2=O)cc1 (stereo not given),inactive: 4.31%
13,CC1=C(C(=O)Nc2cccc(C(F)(F)F)c2)C2(CCCCCC2)OC1=O,inactive: -6.97%
14,O=C(Cn1c(=O)n(Cc2ccc(C(=O)NCc3ccc4c(c3)OCO4)cc2)c(=O)c2ccccc21)Nc1cccc(Cl)c1,inactive: 11.5%
15,O=C(NCCc1ccc(Cl)cc1)c1ccc(CS(=O)(=O)Cc2ccc(Cl)cc2)o1,inactive: -1.02%
16,Cc1noc(-c2ccc(-c3noc(-c4ccccc4)n3)cc2)n1,inactive: -0.0276%
17,CCC(C(=O)NCc1ccc2c(c1)CCN2C(=O)c1ccc(F)cc1)c1ccccc1 (stereo not given),inactive: 6.56%
18,CC(=O)c1cc(-c2ccccc2)n(CCC(=O)Nc2nc3c(C)cccc3s2)c1C,inactive: 11%
19,CCOc1ccc(CCNC(=O)c2cc(Nc3ccc(C)cc3C)nc3ccccc23)cc1OCC,inactive: 2.11%
20,CC1CCN(S(=O)(=O)c2ccc3[nH]cc(C(=O)NCc4ccc(F)cc4)c(=O)c3c2)CC1,inactive: -6.07%
21,CCOC(=O)c1cc(-c2ccc(C)cc2)n(CCC(=O)Nc2cc(Cl)ccc2C)c1C,inactive: 0.579%
22,Cc1cccc(C)c1NC(=O)Cn1cc(S(=O)(=O)Cc2ccc(F)cc2)c2ccccc21,inactive: 13.7%
23,Cc1ccc(CNC(=O)CN2C(=O)COc3ccccc32)cc1,inactive: 1.24%
24,Cc1cc(C)cc(NC(=O)Cn2c(=O)n(CC(=O)NCCc3ccccc3)c(=O)c3ccccc32)c1,inactive: -3.83%

row,Compound,"activity change, negative = cytotoxicity"
1,COc1ccc(C(=O)Nc2nnc(SCc3cc(=O)n4cc(Cl)ccc4n3)s2)cc1,inactive: 12.7%
2,Clc1cccc(-n2ncc3c(N4CCCCCC4)ncnc32)c1,inactive: 5.23%
3,Cn1c(=O)n(C)c2cc(N3CCCC3)c(NC(=O)Nc3ccccc3)cc21,inactive: -1.01%
4,CCNc1sc(S(C)(=O)=O)nc1S(=O)(=O)c1ccc(C)cc1,inactive: -7.01%
5,Cc1ccc(Cn2c(=O)n(Cc3ccccc3Cl)c(=O)c3cccnc32)cc1,inactive: 16.8%
6,COc1cc(OC)c(NC(=O)c2c(C)oc3ncnc(N4CCCCC4)c23)cc1Cl,inactive: 1.63%
7,Cc1ccc(N2CCN(c3nc4ccccc4c4nnc(C)n34)CC2)c(C)c1,inactive: -0.754%
8,CCc1ccc(NC(=O)CCNC(=O)Cn2cnc3ccccc3c2=O)cc1,inactive: 5.27%
9,Cc1ccc(NC(=O)Cn2ncn3c(cc4ccccc43)c2=O)cc1C,inactive: 3.43%
10,Nc1nc(N)c(S(=O)(=O)c2ccccc2)c(Nc2ccc(F)cc2)n1,inactive: 20.4%
11,Cn1ccc2cc(S(=O)(=O)N3CCN(C(=O)Nc4ccccc4F)CC3)ccc21,inactive: -3.1%
12,CCOC(=O)N1CCC(NC(=O)c2ccc3c(c2)N(Cc2ccc(Cl)cc2)C(=O)c2ccccc2S3=O)CC1 (stereo not given),inactive: -7.56%
13,Cc1cccc(N(C)S(=O)(=O)c2nnc(NC(=O)C3CCCCC3)s2)c1,inactive: -0.699%
14,O=C(CSc1nc2ccccc2nc1Cc1ccccc1)N1CCCc2ccccc21,inactive: -21.6%
15,CCOC(=O)c1cccc(NC(=O)c2sc3nc[nH]c(=O)c3c2C)c1,inactive: -4.37%
16,COc1cc(-c2ccno2)ccc1S(=O)(=O)N1CCN(c2ccc(F)cc2)CC1,inactive: -25.4%
17,CCc1ccc2occ(CC(=O)N(Cc3ccc(N(C)C)cc3)C3CCS(=O)(=O)C3)c2c1 (stereo not given),inactive: -20.4%
18,CCOC(=O)N1CCc2c(sc3c2c(=O)n(-c2ccc(CC)cc2)c(=O)n3Cc2cc(C)ccc2C)C1,inactive: 5.11%
19,CCOC(=O)c1c(C)oc2nc(C)nc(Nc3cc(C)ccc3OC)c12,inactive: 11.5%
20,CCOc1ccccc1NC(=O)C1CCCN(S(=O)(=O)c2cn(C)cn2)C1 (stereo not given),inactive: 5.13%
21,CCOc1ccc(NC(=O)Cn2c(=O)cc(C)c3c(C)nn(-c4ccc(CC)cc4)c32)cc1,inactive: 22.4%
22,COc1ccc(C(=O)Nc2ccccc2C(=O)OCc2cc(=O)n3nc(C4CC4)sc3n2)cc1,inactive: -4.51%
23,O=C(C1CCCCC1)N(Cc1cccnc1)c1nc2ccc(F)cc2s1,inactive: -24.3%
24,CCc1nnc(NC(=O)CSc2nc3c([nH]c4ccccc43)c(=O)n2-c2ccc(OC)cc2)s1,inactive: -0.973%

row,Compound,"activity change, negative = cytotoxicity"
1,Cc1ccc(N2CC(C(=O)NCc3nnnn3-c3ccc(C)c(C)c3)CC2=O)cc1 (stereo not given),inactive: 1.23%
2,COC(=O)c1ccc(Cn2c(SCC(=O)Nc3ccc(F)cc3)nc3ccccc32)cc1,inactive: 3.32%
3,CCOc1ccc(-c2cc(NC(=O)Nc3ccccc3C(F)(F)F)c(C(=O)OC)s2)cc1,inactive: -0.24%
4,CCCCOc1ccc(C(=O)Nc2ccc3c(c2)CCCN3S(=O)(=O)c2ccc(C)cc2)cc1,inactive: 0.17%
5,CCCCN(CC)Cc1ccc(CNS(=O)(=O)c2cc3c(cc2Cl)NC(=O)CO3)o1,inactive: 10.8%
6,CCOc1ccc(NC(=O)Cn2c(=O)n(Cc3ccc(C(=O)NCc4ccc5c(c4)OCO5)cc3)c(=O)c3ccccc32)cc1,inactive: -28.7%
7,COc1ccc(OC)c(CCNC(=O)CN2C(=O)COc3ccc(S(=O)(=O)N4CCCCCC4)cc32)c1,inactive: 11.7%
8,CCc1ccc(CNC(=O)c2ccc3c(c2)nc2n3CCCCC2)cc1,inactive: -0.144%
9,Cc1ccc(C)c(Cn2cnc3ccccc3c2=O)c1,inactive: 8.8%
10,COc1cccc(CNC(=O)CSc2n[nH]c(-c3ccccc3Cl)n2)c1,inactive: -1.2%
11,COc1cccc(CNC(=O)CCNS(=O)(=O)c2ccc3c(c2)CCCC(=O)N3)c1,inactive: 21%
12,O=C(NCc1ccccn1)c1nn(-c2ccccc2F)nc1CO,inactive: -5.98%
13,COc1cc(CN2CCN(S(=O)(=O)c3ccc(F)cc3)CC2)cc(OC)c1OC,inactive: -3.31%
14,Fc1ccccc1C1=NC(c2ccc(C(F)(F)F)cc2)=Nc2ccccc2N1,inactive: 13.2%
15,COC(=O)c1cc(OC)c(OC)cc1NC(=O)c1ccc2c(c1)CCN2S(=O)(=O)c1ccccc1,inactive: 0.242%
16,Fc1ccc(-n2ncc3c(N4CCN(Cc5ccccc5)CC4)ncnc32)cc1,inactive: -1.32%
17,Cc1ccc(CNC(=O)Cn2ccn(-c3cc(C)cc(C)c3)c(=O)c2=O)cc1,inactive: 4.8%
18,O=C(c1ccc(F)cc1)n1nc(-c2ccc(Cl)cc2)nc1NCc1ccco1,inactive: -17.7%
19,COc1ccccc1NC(=O)Cn1nc(C)n2cccc2c1=O,inactive: -2.93%
20,COc1ccc(OC)c(NC(=O)c2cc3cc4ccc(C)cc4nc3s2)c1,inactive: 6.49%
21,CC1=C(C(=O)Nc2ccccc2)C(c2cccs2)n2nc(SCc3ccccc3)nc2N1 (stereo not given),inactive: 6.25%
22,CCc1cccc(NC(=O)CN2c3ccccc3S(=O)(=O)c3ccccc32)c1,inactive: 2.44%
23,CC(C)(C)OC(=O)N1CCC(c2c(C(=O)N3CCN(c4ncccn4)CC3)cnn2-c2cccc(F)c2)CC1,inactive: -7.63%
